B1: CPEB3 Ribozyme (parent)
chain: UAACAGGGGGCCACAGCAGAAGCGUUCACGUCGCAGCCCCUGUCAGAUUCUGGUGAAUCUGCGAAUUCUGCUGUAUAUCUC

Read counts are not given, so values of variants with three or more changes are uncertain.

Variants of B1 are the subject of the series. Put plainly: self-cleavage, relative activity (ratio to wild type); higher = more cleavage; in vitro, sequencing. A digest of the protocol: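 Libraries of CPEB3 self-cleaving ribozyme mutants came from rounds of error-prone PCR and carried barcodes, which DNA sequencing matched to variants. In vitro transcription used T7 RNA polymerase at 37°C for 5 hours, with a further 15 min in DNase I before EDTA stopped the reaction; the ribozymes cleaved during both steps. The RNA was reverse transcribed with template switching and sequenced on Illumina. Relative activity is the cleaved/total read fraction of a variant divided by that of the unmutated ribozyme, averaged over three batches with at least 5 reads.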
A2G A3G A65G: the self-cleavage amounted to 0.77. As to U1C G9U A15G G24A U41A, the self-cleavage is 0.11.

Turning to A2G A13G C39U A47G, the self-cleavage is 0.21. To U1C C23A A45U belongs 0.08; to U1C A20U A64G A65G, 0.23; to U1C C17U C34U U60A, 0.15. Consider U1C C23U C50G A64C, for which the self-cleavage came to 0.11.

A2G A13G A28G U43G U54C: the self-cleavage came to 0.49. In the case of U1C A13U A15C U25C U49C A56U U66C it was 0.06; in that of U1C G9C U26A U49A A64U, 0.04; in that of U1C C40U U41A U48A, 0.17. Regarding U1C C12U G24C A28G, the self-cleavage turned out to be 0.18. To U1C U41C U72C belongs 1.2; to U1C A3U U43C, 0.4. For the variant U1C A13G U78A, the self-cleavage worked out at 0.93.

With A2G A18G C39A, the self-cleavage worked out at 0.32. Consider U1C U41A U69C, for which the self-cleavage is 0.31.

In the case of U1C G10U G36C U51C A65G U78C, the self-cleavage was found to be 0.05. In the case of U1C A15G A18C U43C A65G it was 0.3; in that of A2G A15U A21G U41C A45U U69C, 0.13. Regarding U1C A3U A20G A21G, the self-cleavage turned out to be 0.51.

U1C A20G A47G U51C U66C: the self-cleavage was 0.46. As for U1C U26C U54C U67C G70A, the self-cleavage stood at 0.07. With U1C G7A C11G A28G G52A U58A, the self-cleavage stood at 0.1. For the variant U1C A5G A21C U80C, the self-cleavage came out at 0.04. Take U1C A18U U48C U54C: the self-cleavage turned out to be 0.32. On to A2G A20U U67C U69A, for which the self-cleavage turned out to be 0.11.

With U1C G16A A20G A21G U43A, the self-cleavage was found to be 0.1. In the case of A2C A13G A18G C32U U48G, the self-cleavage worked out at 0.34. With U1C C14U A18G G24A U26A A28G A35U, the self-cleavage was 0.05.

Take U1C G7A A15U U26C U54C U66A: the self-cleavage stood at 0.04.

For A2G A21G A35G, the self-cleavage came out at 0.87. To U1C A3G C17U A20G C39U U43C U67C belongs 0.08; to A2C G6A A13G A20C A64U U66C, 0.05. U1C C37A A64U: the self-cleavage was 0.17. Take A2C G10A U66C U78C: the self-cleavage was 0.05. In the case of U1C U26C U69A U78A, the self-cleavage came to 0.07.

Take A2G A3G C23G U60C U80A: the self-cleavage was determined as 0.52. Regarding U1C C29U U51A A56U U78A, the self-cleavage stood at 0.13.

Regarding A2C U41C U78C, the self-cleavage is 1.06. As to U1C U43C A45G, the self-cleavage was 0.61. For A2G A13U U41C U54G, the self-cleavage was found to be 0.85. In the case of U1C A15G G33U it was 0.22.

On to U1C A21G A28G C79A U80A, for which the self-cleavage was 0.73.

U1C U25C U41A U51C U58C: the self-cleavage is 0.18. As for A2G A13U A15U U67C U72C, the self-cleavage was determined as 0.18.

For U1G G30C U58C A64G, the self-cleavage was found to be 0.18. In the case of A2C A65G U69C, the self-cleavage is 0.32. In the case of U1C G52A U60C C62U U67G U76C it was 0.1. Turning to U1C A20G G30A U41A U58C U78C, the self-cleavage is 0.12. In the case of U1C U26C G33A U41A U48C it was 0.06; in that of U1C C40U U66A, 0.17; in that of U1G A45G A47U, 0.4. As to A2G A3U U54C, the self-cleavage was 1.16. Consider U1C G9U G33U C39U, for which the self-cleavage amounted to 0.04.

Turning to U1C A45G U72C, the self-cleavage was 0.77.

Regarding U1C A3G C38A A47G A57G U78C U80C, the self-cleavage was 0.05.

For A2G A20G G52U A56U U76C, the self-cleavage stood at 0.27.

With U1C A20C A21G U41C U66G U69C, the self-cleavage came out at 0.07.

As for U1C U26A C40U, the self-cleavage stood at 0.18. On to U1C U31C A64U, for which the self-cleavage was 0.21. For the variant U1C A3G C29A A35G G52U A56U U66C, the self-cleavage worked out at 0.24. A2G A3G U25A U31C U49C: the self-cleavage was 0.45. Turning to U1C C4A C40U U80A, the self-cleavage turned out to be 0.71. As for A2G A15U U43C U54C U60A, the self-cleavage is 0.24. For U1C U54C A65G U67G C71U, the self-cleavage stood at 0.25.

Turning to A2G A13U U26C C27G A35U A64G, the self-cleavage was 0.11.

As to U1G A2G C29G U72A U74A, the self-cleavage is 0.11. In the case of U1C U60C G61A, the self-cleavage worked out at 0.32. For the variant U1C A21G A35G C62A A64G U78A, the self-cleavage was 0.2. Take U1C A13C A21C A47G U72A: the self-cleavage was determined as 0.06.

Regarding U1C U60A U74A U76C, the self-cleavage turned out to be 0.72. In the case of U1C U51A A65U it was 0.18; in that of U1C A15G A21G U60C A75G, 0.2; in that of A2C U31A A77G, 0.56. To U1C U58A U69G U74C belongs 0.26; to U1C U31C U54A U60C U74C, 0.68; to U1C A3U U72C, 1.23. In the case of A2G A3G U31C C59U A65C C81A, the self-cleavage came out at 0.06. As for U1C G24A A35U U41C U66A, the self-cleavage was 0.07.

U1C A5G G10C A18G U60C U67C C79G: the self-cleavage was 0.09. In the case of U1C A13G A45G U54G A64G, the self-cleavage was found to be 0.08. Take A2G A18U A47G U66C U80C: the self-cleavage is 0.12.
